Laboratory results as given in paper PMC11772845.
No constants are given. Whether binding was seen depends on the method and setting. In cells and extracts the contact can be indirect. Some results given as binding are weak or reduced against the parent protein; the word gives no strength.

T1: Mic60_(ProtA) (S. cerevisiae) (UniProt P36112)
T1 sequence: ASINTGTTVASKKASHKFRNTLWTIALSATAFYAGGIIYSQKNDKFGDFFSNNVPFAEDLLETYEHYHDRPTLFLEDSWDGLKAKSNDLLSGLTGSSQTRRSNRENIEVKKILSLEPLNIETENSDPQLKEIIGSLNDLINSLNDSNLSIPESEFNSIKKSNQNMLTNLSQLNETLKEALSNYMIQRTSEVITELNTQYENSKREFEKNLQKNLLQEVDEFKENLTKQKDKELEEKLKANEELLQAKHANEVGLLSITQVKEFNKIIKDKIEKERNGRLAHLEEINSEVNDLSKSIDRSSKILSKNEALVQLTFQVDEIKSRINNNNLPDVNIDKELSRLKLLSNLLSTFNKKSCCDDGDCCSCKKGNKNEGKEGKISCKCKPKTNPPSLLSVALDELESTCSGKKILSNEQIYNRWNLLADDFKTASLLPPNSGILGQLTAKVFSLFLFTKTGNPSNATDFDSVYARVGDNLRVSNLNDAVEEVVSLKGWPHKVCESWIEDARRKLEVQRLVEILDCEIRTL

T2: Mic12_(ProtA) (S. cerevisiae) (UniProt P38341)
T2 sequence: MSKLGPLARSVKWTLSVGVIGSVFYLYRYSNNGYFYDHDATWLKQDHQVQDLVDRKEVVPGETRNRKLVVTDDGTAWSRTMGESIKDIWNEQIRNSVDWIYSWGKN

B1: Radiolabeled Rip1 (protein, UniProt P08067 1-215)
chain: MLGIRSSVKTCFKPMSLTSKRLISQSLLASKSTYRTPNFDDVLKENNDADKGRSYAYFMVGAMGLLSSAGAKSTVETFISSMTATADVLAMAKVEVNLAAIPLGKNVVVKWQGKPVFIRHRTPHEIQEANSVDMSALKDPQTDADRVKDPQWLIMLGICTHLGCVPIGEAGDFGGWFCPCHGSHYDISGRIRKGPAPLNLEIPAYEFDGDKVIVG
modifications: [^35S]methionine label
B2: OM14 (protein, UniProt P38325 1-134)
chain: MSATAKHDSNASPNSDSEDGHHHNNKKECAIEYLKARLNSASAVACGYLQAFVSKTQDFAKVCFLELQNPVVLVNLLLHSSVVCYLCNGYANHNARFLKGKPNSTVLATTAGALGLLTLDGIISKKYYSRYDKK
B3: Shy1 (protein, UniProt P53266 1-389)
chain: MSLLGARSTYRWFSIAASIPTKNAIGKSTYLLASRNQQYRGIITSTVDWKPIKTGKSPNDDSRRERSFGKKIVLGLMFAMPIISFYLGTWQVRRLKWKTKLIAACETKLTYEPIPLPKSFTPDMCEDWEYRKVILTGHFLHNEEMFVGPRKKNGEKGYFLFTPFIRDDTGEKVLIERGWISEEKVAPDSRNLHHLSLPQEEHLKVVCLVRPPKKRGSLQWAKKDPNSRLWQVPDIYDMARSSGCTPIQFQALYDMKDHPIIEEHTRNEASQNNSTSSLWKFWKREPTTAVNGTQAVDNNTSKPRSRQEMPTDQTIEFDERQFIKAGVPIGRKPTIDLKNNHLQYLVTWYGLSFLSTIFLIVALRKAKRGGVVSQDQLMKEKLKHSRKYM
B4: Mss51 (protein, UniProt P32335 27-436)
chain: VVSHQTRRHLMGFVRNALGLDPPPSPEDPTPENRFHPWDQSPSVDLRERAAKIRTLAHCPVTGKDINYTCPLSGIPTHHSREAWEMDKAYHDSKKYEILKKVNIYEHDLRSGRPFPEFDFPQQQGYDKAVNLTNWDLFFYTRSFYSMDTEFQLAAVTKMLSYPITIGSLLHKFSPYSLNPKGPITLEGLKSLAALRYTLYPLENRSLPTTTKNRAMRIFILGARAEAQLPGHVWKQLQFLFPEQSFEIHFIGPECLYKRDKQEYVKSTTPVVQRVDETLKFIYRTNFFEVFHEAQDFFPYDPYMDVFFTFHPGYASPESHGSWMGETMKALLETKCAIFTTGFNKKDLTDDINLVKSKYGKEMDVLMEPVRNVFGSTKWELNDMNPQEVYQFNMYIAGFRGKRYHTIKRQ
B5: Atp20 (protein, UniProt Q12233 1-115)
chain: MLSRIQNYTSGLVSKANLLSSKALYYGKVGAEISKQIYLKEGLQPPTVAQFKSVYSNLYKQSLNFALKPTEVLSCLKNIQKNELLKYGAYGIQLIGFYSVGEIIGRRKLVGYKHH
B6: Tom22 (protein, UniProt P49334 1-152)
chain: MVELTEIKDDVVQLDEPQFSRNQAIVEEKASATNNDVVDDEDDSDSDFEDEFDENETLLDRIVALKDIVPPGKRQTISNFFGFTSSFVRNAFTKSGNLAWTLTTTALLLGVPLSLSILAEQQLIEMEKTFDLQSDANNILAQGEKDAAATAN
B7: Atp19 (protein, UniProt P81451 1-68)
chain: MGAAYHFMGKAIPPHQLAIGTLGLLGLLVVPNPFKSAKPKTVDIKTDNKDEEKFIENYLKKHSEKQDA
B8: Rcf1 (protein, UniProt Q03713 1-159)
chain: MSRMPSSFDVTERDLDDMTFGERIIYHCKKQPLVPIGCLLTTGAVILAAQNVRLGNKWKAQYYFRWRVGLQAATLVALVAGSFIYGTSGKELKAKEEQLKEKAKMREKLWIQELERREEETEARRKRAELARMKTLENEEEIKNLEKELSDLENKLGKK
B9: Rcf2 (protein, UniProt P53721 1-224)
chain: MKILTQDEIEAHRSHTLKGGIEGALAGFAISAIIFKVLPRRYPKFKPSTLTWSIKTALWITPPTVLTAICAEEASNNFDATMYGSGSSSEDALDEHRRWKSLSTKDKFVEGLSNNKYKIITGAWAASLYGSWVIVNKDPIMTKAQKIVQARMYAQFITVGLLLASVGLSMYENKLHPNKQKVNEMRRWENALRVAEEEERLEKEGRRTGYVSNEERINSKIFKS
B10: Mic26 (protein, UniProt P50087 1-233)
chain: MTKDFYRQLDPVEEKIVPPENAIVISSEAKEATVNEKEAKQGVLSQRVMKYIGENELVDGISVRDPDYLKRFFNERRKQFSAKWDKVTNKIDDIAGRYYAREESFTSTIASLHTDPNERLIPGLLSILVASMTGSVLARRRTWLLRATMPIILGSCCFAYAMPTTFRNTMGLIHNLEMNTFPHFTERQDRVWKETKRLSTASVQYYYDAKKWLNKDVEKTGNAIKNWTGVNVK
B11: Rip1 (protein, UniProt P08067 31-215)
chain: KSTYRTPNFDDVLKENNDADKGRSYAYFMVGAMGLLSSAGAKSTVETFISSMTATADVLAMAKVEVNLAAIPLGKNVVVKWQGKPVFIRHRTPHEIQEANSVDMSALKDPQTDADRVKDPQWLIMLGICTHLGCVPIGEAGDFGGWFCPCHGSHYDISGRIRKGPAPLNLEIPAYEFDGDKVIVG
B12: Cox2 (protein, UniProt P00410 16-251)
chain: DVPTPYACYFQDSATPNQEGILELHDNIMFYLLVILGLVSWMLYTIVMTYSKNPIAYKYIKHGQTIEVIWTIFPAVILLIIAFPSFILLYLCDEVISPAMTIKAIGYQWYWKYEYSDFINDSGETVEFESYVIPDELLEEGQLRLLDTDTSMVVPVDTHIRFVVTAADVIHDFAIPSLGIKVDATPGRLNQVSALIQREGVFYGACSELCGTGHANMPIKIEAVSLPKFLEWLNEQ
B13: Cox9 (protein, UniProt P07255 1-59)
chain: MTIAPITGTIKRRVIMDIVLGFSLGGVMASYWWWGFHMDKINKREKFYAELAERKKQEN
B14: Cyt1 (protein, UniProt P07143 62-309)
chain: MTAAEHGLHAPAYAWSHNGPFETFDHASIRRGYQVYREVCAACHSLDRVAWRTLVGVSHTNEEVRNMAEEFEYDDEPDEQGNPKKRPGKLSDYIPGPYPNEQAARAANQGALPPDLSLIVKARHGGCDYIFSLLTGYPDEPPAGVALPPGSNYNPYFPGGSIAMARVLFDDMVEYEDGTPATTSQMAKDVTTFLNWCAEPEHDERKRLGLKTVIILSSLYLLSIWVKKFKWAGIKTRKFVFNPPKPRK
B15: Qcr8 (protein, UniProt P08525 1-94)
chain: MGPPSGKTYMGWWGHMGGPKQKGITSYAVSPYAQKPLQGIFHNAVFNSFRRFKSQFLYVLIPAGIYWYWWKNGNEYNEFLYSKAGREELERVNV
B16: Atp21 (protein, UniProt P81449 1-96)
chain: MSTVNVLRYSALGLGLFFGFRNDMILKCNAKKKEEQAQYEEKLKLVEEAKKEYAKLHPVVTPKDVPANASFNLEDPNIDFERVILNAVESLKEAST
B17: Yme1 (protein, UniProt P32795 1-747)
chain: MNVSKILVSPTVTTNVLRIFAPRLPQIGASLLVQKKWALRSKKFYRFYSEKNSGEMPPKKEADSSGKASNKSTISSIDNSQPPPPSNTNDKTKQANVAVSHAMLATREQEANKDLTSPDAQAAFYKLLLQSNYPQYVVSRFETPGIASSPECMELYMEALQRIGRHSEADAVRQNLLTASSAGAVNPSLASSSSNQSGYHGNFPSMYSPLYGSRKEPLHVVVSESTFTVVSRWVKWLLVFGILTYSFSEGFKYITENTTLLKSSEVADKSVDVAKTNVKFDDVCGCDEARAELEEIVDFLKDPTKYESLGGKLPKGVLLTGPPGTGKTLLARATAGEAGVDFFFMSGSEFDEVYVGVGAKRIRDLFAQARSRAPAIIFIDELDAIGGKRNPKDQAYAKQTLNQLLVELDGFSQTSGIIIIGATNFPEALDKALTRPGRFDKVVNVDLPDVRGRADILKHHMKKITLADNVDPTIIARGTPGLSGAELANLVNQAAVYACQKNAVSVDMSHFEWAKDKILMGAERKTMVLTDAARKATAFHEAGHAIMAKYTNGATPLYKATILPRGRALGITFQLPEMDKVDITKRECQARLDVCMGGKIAEELIYGKDNTTSGCGSDLQSATGTARAMVTQYGMSDDVGPVNLSENWESWSNKIRDIADNEVIELLKDSEERARRLLTKKNVELHRLAQGLIEYETLDAHEIEQVCKGEKLDKLKTSTNTVVEGPDSDERKDIGDDKPKIPTMLNA

Biological target: T1, Mic60_(ProtA) (S. cerevisiae)
Test: co-IP; [^35S]-labelled precursor imported into isolated mitochondria that carry the protein A-tagged bait; then digitonin solubilisation, IgG chromatography, SDS-PAGE (or two-dimensional gel) and autoradiography

| binding | Binder |
| --- | --- |
| binds | B1 |

Biological target: T2, Mic12_(ProtA) (S. cerevisiae)
Test: co-IP; protein A- or TAP-tagged bait captured on IgG-Sepharose from mitochondria solubilised in 1% digitonin (20 mM Tris-HCl pH 7.4, 50 mM NaCl, 0.1 mM EDTA, 10% glycerol), washed with 0.3% digitonin, eluted with TEV protease at 4 °C; eluates analysed by SDS-PAGE or BN-PAGE and western blot; untagged wild type as control; also done with rho-, mic10Δ (Mic60 bait), mar26Δ, rip1Δ and Mar26-overexpressing mitochondria

| binding | Binder |
| --- | --- |
| no binding | B2 |
| binds | B3 |
| binds | B4 |
| no binding | B5 |
| no binding | B6 |
| no binding | B7 |
| binds | B8 |
| binds | B9 |

Biological target: T1, Mic60_(ProtA) (S. cerevisiae)
Test: as above

| binding | Binder |
| --- | --- |
| no binding | B2 |
| binds | B10 |
| binds | B11 |
| binds | B12 |
| binds | B3 |
| binds | B4 |
| no binding | B5 |
| binds | B13 |
| binds | B14 |
| binds | B6 |
| no binding | B7 |
| binds | B15 |
| binds | B8 |
| no binding | B16 |
| binds | B9 |
| no binding | B17 |
